The values that follow come from ChEMBL document CHEMBL4513135, “CO-ADD screening of IQOG CSIS (Spain) compounds”.

The other results are listed elsewhere or left out. Potency and affinity values are given separately.

This experiment has as its system Pseudomonas aeruginosa. Conditions: Concentration 32 ug.mL-1; ASSAY_TEST Inhibition of Bacterial Growth; detection method Absorption (OD600); MEDIA CAMHB; plate type 384well; NBS; CORNING #3640; time 18 hr.
On to `COc1ccc2cc(C=O)c(Cl)nc2c1`, for which the Inhibition was -0.66%.

In the case of `CCOC(=O)c1cc2cc(O)ccc2n1C(=O)OC(C)(C)C`, the Inhibition is on record as -5.94%.

With `CCOC(=O)C1=C(C)OC(N)=C(C#N)C1c1ccc([N+](=O)[O-])cc1` (centres undefined), the Inhibition came out at 9.5%.

`COc1ccc(C2c3ccc4ccccc4c3Oc3nc4c(c(N)c32)CCCC4)c(OC)c1` (centres undefined): the Inhibition was 13.22%.

As to `COc1ccc(-c2cc(-c3cc4c(C)cc(C)cc4nc3Cl)cc(=O)[nH]2)cc1`, the Inhibition is reported as -4.96%.

Take `COc1cccc(C2c3c(ccc4ccccc34)OC(=NBr)C2(Br)C#N)c1` (centres undefined): the Inhibition was found to be 14.81%.

With `N#CC1(Br)C(=N)Oc2ccc3ccccc3c2C1c1cccc([N+](=O)[O-])c1` (centres undefined), the Inhibition is on record as -21.49%.

As for `N#CC1=C(N)Oc2c(ccc3ccccc23)C1c1ccc(O)cc1` (centres undefined), the Inhibition stood at 17.58%.

Consider `COc1ccc2c(c1)cc(/C=C/[N+](=O)[O-])n2C`, for which the Inhibition turned out to be 34.75%.

In the case of `CN(C)c1nc2nc3c(c(N)c2c(-c2ccccc2)c1C#N)CCCC3`, the Inhibition came out at 15.18%.

As for `O=C(COc1ccc2ccccc2c1)N/N=C/c1c[nH]c2ccccc12`, the Inhibition is recorded as 27.77%.

In the case of `CC1Cc2c(Cl)nc3nc4c(c(N)c3c2NC1=O)CCCC4` (centres undefined), the Inhibition came to 28.48%.

With `CC(=NNC(N)=O)c1c[nH]c2ccccc12`, the Inhibition turned out to be 4.99%.

Take `C#CCNc1ncccn1`: the Inhibition is listed as 20.65%.

As for `CCOC(=O)c1cc2cc(OCc3ccccc3)ccc2[nH]1`, the Inhibition is 35.07%.

With `N#Cc1cc2c(N)c3c(nc2nc1Cl)CCN(Cc1ccccc1)C3`, the Inhibition worked out at 31.21%.

On to `COC1(N)Oc2ccc3ccccc3c2C(c2ccccc2)C1(Br)C#N` (centres undefined), for which the Inhibition was -12.17%.

`CCOC(=O)C1=C(C)OC(N)=C(C#N)C1c1ccccc1OC` (centres undefined): the Inhibition is 21.47%.

For the compound `N#CC1=C(Cl)Oc2c(ccc3ccccc23)C1c1ccccc1` (centres undefined), the Inhibition came to 1.1%.

On to `N#Cc1cccnc1Cl`, for which the Inhibition is reported as 8.4%.

`N#CC1(Br)C(=NBr)Oc2ccc3ccccc3c2C1c1ccc([N+](=O)[O-])cc1` (centres undefined): the Inhibition is -14.25%.

`CC1CN(C)c2c(C#N)c(-c3ccccc3)c(C#N)c(=N)n21` (centres undefined): the Inhibition was 14.18%.

For the compound `C#CCNc1nc(NCC#C)c(C#N)cc1C#N`, the Inhibition is given as 8.28%.

With `N#CC1=C(N)Oc2ccc3ccccc3c2C1`, the Inhibition worked out at 17.02%.

For the compound `N#Cc1c(Cl)nc(NC2CCN(Cc3ccccc3)CC2)c(C#N)c1-c1ccccc1`, the Inhibition is -11.42%.

For the compound `N#Cc1cc(C#N)c(N2CCCCC2)nc1Cl`, the Inhibition is on record as 26.95%.

Take `Cn1ccnc1C1c2ccc3cccnc3c2Oc2nc3c(c(N)c21)CCCCC3` (centres undefined): the Inhibition is 29.99%.

Consider `CC/C(C)=N/NC(=O)Cc1c[nH]c2ccccc12`, for which the Inhibition was found to be 25.13%.

On to `CC(=O)C(=Cc1ccccc1)C(=O)O[C@H]1C[C@H](C)CC[C@H]1C(C)C`, for which the Inhibition was 23.58%.
